# Experimental data as given in ChEMBL document CHEMBL4888484, “Replenishing the malaria drug discovery pipeline: Screening and hit evaluation of the MMV Hit Generation Library 1 (HGL1) against asexual blood stage Plasmodium falciparum ,using a nano luciferase reporter read-out” (2022).
# About 540 (0.36%) of roughly 150,000 compounds showed an effect of 50% or more. The list shows a part of the results.
# System: Plasmodium falciparum
# Experiment: Primary screen in NF54 nanoGlo assay, in single point, at 2uM, 72h; a lower Z score goes with more inhibition
# Type: functional, Erythrocyte
# Conditions: timepoint 72 hour
SMILES,% Inhibition [%],Z score
CCC(=O)N(CC(=O)N1CCc2sccc2[C@@H]1COc1ccc(C)cc1)CC1CC1,-2,0.18
COc1ccc(CN[C@H]2CCC23CCOCC3)c(OC)n1,-7,0.87
CCS(=O)(=O)NC(=O)[C@H]1CCN(CC(F)(F)F)C1,6,-1.03
Cn1cc(Cl)cc1C(=O)NCC1(O)CN(C(=O)OC(C)(C)C)C1,-13,1.42
C[C@H](NC(=O)CN1CCc2[nH]ncc2C1)c1cccs1,-1,0.07
COCCN(CC(=O)NCCN1C(=O)Cc2ccccc21)C(=O)OC(C)(C)C,3,-0.32
CCn1nccc1C(=O)N1C[C@H]2CC[C@@H](C1)N(Cc1c(C)noc1C)C2=O,-11,1.22
CC(=O)N1c2ccccc2C2(O)CC3C(=O)NC(CC(C)C)C(=O)N3C12 (stereo unspecified),30,-3.4
O=C(NCCCOCC1CCOCC1)C1(C2CC2)CCOCC1,-8,1.01
C[C@]1(O)CCN(c2ncccc2C#N)C[C@H]1Cc1ccccc1,-1,0.09
O=C1[C@H](c2cn(Cc3ccccc3)c3ccccc23)CC(c2ccccc2)=NN1Cc1ccccc1,-4,0.79
CC(C)c1cc(N[C@H]2CCC[C@H]2C(N)=O)nc(N)n1,-11,1.41
COc1cccc(CNCc2c(C(=O)O)c(C)n(-c3ccccc3)c2C)c1,-5,1.01
Cc1ccc(-c2cc(CN(Cc3ccc(F)cc3)C(=O)NC(C)C)no2)c(C)c1,8,-1.06
CCO[C@H]1COC[C@@H]1NC(=O)Cc1c(C)n[nH]c1C,-1,0.23
CCc1noc(CC)c1CNC(=O)NCc1ccon1,23,-2.6
CCCC1(C2CCN(Cc3ccccc3-c3ccco3)CC2)NC(=O)N(CCC2CCCN2C)C1=O (stereo unspecified),10,-1.29
Cc1ccc(C(=O)NCC2CCCC23NC(=O)NC3=O)c2c1CCC2 (stereo unspecified),6,-0.99
CCOc1cccc(CN2C(=O)C3(CCOCC3)C[C@H]2c2nnnn2C(C)(C)C)c1,-17,2.65
O=C1OCC[C@H]2CN(c3ncc(Br)cc3F)CCN12,35,-3.95
O=C(Cn1nnc2c1CCCC2)N[C@@H]1c2ccccc2CC[C@@H]1O,-3,0.43

SMILES,% Inhibition [%],Z score
CCNC(=O)N(C)c1cccc(NC(=O)N2CCO[C@](C)(C3CC3)C2)c1,-5,0.67
CCCN(CC1CC1)C(=O)NCc1sc(C)nc1C,-10,1.43
O=C([C@H]1CCCN(C2CCN(Cc3ccccc3F)CC2)C1)N1CCCC1,-10,1.34
CN1CCN(C(=O)C[C@]2(c3ccccc3)CC(=O)N(CC3CCCCC3)C2=O)CC1,5,-0.81
O=C(CCc1cc2n(n1)CCCN(Cc1ccsc1)C2)NCCO,1,-0.09
COc1ccc(CNC(=O)[C@]2(C)Cn3nc(-c4cccs4)cc3C(=O)N2c2cc(C)ccc2C)cc1,-3,0.54
COC[C@@]1(C)CCN(C(=O)NCc2ccnc(OC(F)F)c2)C1,-14,1.42
O=C(NCC1CCN(Cc2cccc(Cl)c2)CC1)c1n[nH]c2c1CCc1ccccc1-2,-20,1.78
Cc1cccc(-c2noc(C3CCC(=O)N3CC(=O)NCC3CCCO3)n2)c1 (stereo unspecified),-6,1.22
COCCN(Cc1nc(C(=O)N2CCN(c3ccccc3OC)CC2)cs1)C(=O)Nc1c(C)cccc1C,-12,1.31
CC(C)(C)OC(=O)NC1CCC(C(=O)NCc2ccccc2)C1 (stereo unspecified),1,-0.27
CCN(C(=O)CCc1ccccc1F)[C@@H](C)CO,-3,0.52
Cc1ccc(-c2cccc(C(=O)NCC3CCOCC3)c2)c(C)n1,-2,0.22
NC(=O)NCc1cc(C2CC2)ccc1F,-3,0.45
CCc1[nH]c2ccc(CNC(=O)[C@H]3CCN(CCOC)C3)cc2c1C,14,-1.86
NC(=NCC1(c2ccccc2)CCOCC1)NC[C@H]1CCCO1,-3,0.43
CCOc1ccnc(NCC[C@H]2CCCCN2C2CCCC2)n1,-6,0.83
Cc1cc(NC(=O)CN2C(=O)c3ccccc3C2=O)n(C)n1,3,-0.48
CC(C)c1nnc(CN(C/C=C/c2ccccc2)C2CC2)o1,-11,1.55
C[C@H]1CCCN(c2ccc(C(N)=O)cc2-n2cnnc2)C1,-14,2.05
c1cnc(NCCc2nc3c(s2)COCC3)cn1,6,-0.48

SMILES,% Inhibition [%],Z score
COCCN(C)CCNC(=O)N1CCCC(C)C1C (stereo unspecified),-6,0.93
CN1CCO[C@@H](CNCc2noc(C3CC3)n2)C1,-2,0.45
O=C(NCCCn1ccnc1)[C@@H]1Cc2c(ccc3ccccc23)O1,4,-0.47
O=C(c1cccn2c(=O)c3cc(Cl)ccc3nc12)N1CCC(Cc2ccccc2)CC1,-13,1.52
O=C(NCCc1ccncc1)C1CN(C2CCCCC2)C1,-4,0.41
CCCCN(C)C(=O)c1ccc(-n2nc(-c3nnc(C)o3)c(C)c2-c2ccc(F)cc2)cc1,9,-0.97
CN(Cc1nnn(C)n1)C[C@@H]1C[C@H](F)CN1Cc1cccs1,-7,0.95
CC(C)N(C[C@@H]1COc2ccccc2C1)C(=O)c1ccnn1C,-4,0.67
CC1(C)C[C@@](C)(c2ccccc2)c2ccccc2N1C(=O)CCc1ccccc1,1,-0.1
COc1ccc(CN(C)c2ncnc3ccsc23)cc1,-47,5.53
COC(=O)CN1CCN(C(=O)C2(O)CCC2)CC1,-11,1.59
NS(=O)(=O)c1ccc(N2CCOCC2)c(-c2nc(-c3ccco3)no2)c1,11,-2.11
N#Cc1c(N)nc2c(c1-c1ccc(CO)o1)CCc1cc(O)ccc1-2,-3,0.47
N#Cc1ccccc1CO[C@H]1CCCc2c[nH]nc21,-8,0.8
O=C(Cc1ccsc1)NCc1ccnc(N2CCCC2=O)c1,7,-1.18
COCc1nnc(CNC(=O)N2CCO[C@H](c3cccc(Cl)c3)[C@H]2C)[nH]1,-3,0.58
Cc1ccsc1[C@H]1CCN(Cc2c(C)nn(C)c2Cl)C[C@@H]1O,-10,1.72
Cn1c(C(F)(F)F)nn(C2CCN(C(=O)Cn3cnc4ccccc43)CC2)c1=O,-2,0.22
COc1ccc(Cl)cc1NCC(=O)NC(=O)NC1CC1,-11,1.95
CCOC(=O)C1CCCN(C(=O)C(C)NC(=O)c2cc3n(n2)CCCN(Cc2ccc(F)cc2)C3=O)C1 (stereo unspecified),-10,1.24
COc1ccc([C@@H](O)C(=O)N2CCc3c(nc(C)nc3N3CCCC3)C2)cc1,0,0.05

SMILES,% Inhibition [%],Z score
Cc1ccn2c(-c3csc(Nc4ncccn4)n3)c(C)nc2c1,-2,0.24
COCc1cc(C)nc(OC[C@@H]2OC(c3ccccc3OC)=NN2C(C)=O)c1C#N,3,-0.37
N#Cc1cccc(OC2CCN(c3ccc(Cl)c(C#N)n3)CC2)c1,12,-1.44
CN(c1cccc(C(=O)Nc2ccon2)c1)S(=O)(=O)c1ccccc1,-5,0.59
CCc1nsc(NC2CCN(CC(=O)N(CC)CC)CC2)n1,3,-0.36
O=C(O)c1cnc(C=Cc2csc(-c3ccccc3)n2)[nH]c1=O,5,-1.03
Cc1ccccc1-n1ncnc1CCN1C[C@@H](C)O[C@@H](C)C1,-12,1.65
N#CCNC(=O)C1CC12CCc1cc(Br)ccc12 (stereo unspecified),-14,1.19
CCN1CCCN(C(=O)c2ccc(-c3cnc4c(C#N)cnn4c3)cc2)CC1,-13,1.57
O=C(CCCn1cncn1)N1CCC[C@H](c2nc3ccccc3s2)C1,-3,0.61
CCOc1cccc2nnc(NC(=O)CCC(=O)NCc3cccc(OC)c3)n12,-11,1.3
c1ccc(-c2noc3c(NC4CCCCCC4)ncnc23)cc1,-6,1.08
COc1ccccc1-c1noc(C(C)(C)CN2CCOCC2)n1,-20,2.56
O=C(CCS(=O)(=O)c1ccc(F)cc1)NCC(=O)NCCc1c[nH]c2ccccc12,-5,0.71
C[C@H]1CN(C(=O)c2c[nH]nc2-c2ccccc2Cl)CCN1,-14,2.1
CCC(C)(C)C(=O)N1CCC(CCOCc2cccc(F)c2)CC1,-9,1.81
COc1ccccc1Nc1nc(C(C(F)(F)F)(C(F)(F)F)C(F)(F)F)nc(C(C(F)(F)F)(C(F)(F)F)C(F)(F)F)n1,-9,1.48
COc1cccc(-c2ccnc3c(C(=O)NCc4ccccn4)cnn23)c1,1,-0.12
CC(C)S(=O)(=O)CCCn1cc(S(=O)(=O)N(C)C)cn1,-26,3.03
CCn1cc(S(=O)(=O)Nc2ccc(-c3nc4ccc(C)cc4s3)cc2)cn1,-13,2.37
